Data as given in the supplement of paper PMC4967469.
The IC50 comes from the fitted curve, where viability falls to half of the control; a fit beyond the top or the lowest dose is shown as a bound at that dose. AUC, from the same fit, is the share of area under the viability curve across the 256-fold dose range; the more sensitive the line, the further below 1. For some assays here: Any top dose called inferred was calculated from the reported fits.

Experiments:
Assay in all cases: Viability of human cancer cell lines after 72 h of drug (GDSC screen)
QL-XI-92 = compound: C=CC(=O)Nc1cc(NC(=O)c2ccc(C)c(NC(=O)c3ccno3)c2)cc(C(F)(F)F)c1 [QL-XI-92]; settings: top dose 10.24 µM; top dose inferred
Description: (§1)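 Human cancer cell lines in 384-well plates, medium with 10% serum, drug for 72 h over a 256-fold dose range (nine 2-fold or five 4-fold steps up to the top dose). Adherent lines were fixed and stained with the nucleic acid dye Syto60, suspension lines read with resazurin; signal relative to control wells, capped at 0 and 100%. One two-parameter sigmoid per drug and line, fitted in a mixed model over all curves with the slope shared within a line.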

Vinorelbine = compound: CCC1=C[C@@H]2CN(C1)Cc1c([nH]c3ccccc13)[C@@](C(=O)OC)(c1cc3c(cc1OC)N(C)[C@H]1[C@@](O)(C(=O)OC)[C@H](OC(C)=O)[C@]4(CC)C=CCN5CC[C@]31[C@@H]54)C2 [Vinorelbine]; settings: top dose 0.064 µM; top dose inferred
Description: as §1

AG-014699 = compound: CNCc1ccc(-c2[nH]c3cc(F)cc4c3c2CCNC4=O)cc1 [AG-014699]; settings: top dose 5 µM; top dose inferred
Description: as §1

XL-184 = compound: COc1cc2nccc(Oc3ccc(NC(=O)C4(C(=O)Nc5ccc(F)cc5)CC4)cc3)c2cc1OC [XL-184]; settings: top dose 5.12 µM; top dose inferred
Description: as §1

WHI-P97 = compound: COc1cc2ncnc(Nc3cc(Br)c(O)c(Br)c3)c2cc1OC [WHI-P97]; settings: top dose 10.24 µM; top dose inferred
Description: as §1

Gefitinib = compound: COc1cc2ncnc(Nc3ccc(F)c(Cl)c3)c2cc1OCCCN1CCOCC1 [Gefitinib]; settings: top dose 0.5 µM
Description: as §1

Phenformin = compound: N=C(N)NC(=N)NCCc1ccccc1 [Phenformin]; settings: top dose 4000 µM; top dose inferred
Description: as §1

S-Trityl-L-cysteine = compound: N[C@@H](CSC(c1ccccc1)(c1ccccc1)c1ccccc1)C(=O)O [S-Trityl-L-cysteine]; settings: top dose 5.12 µM; top dose inferred
Description: as §1

EHT 1864 = compound: O=c1cc(CN2CCOCC2)occ1OCCCCCSc1ccnc2cc(C(F)(F)F)ccc12 [EHT 1864]; settings: top dose 10 µM; top dose inferred
Description: as §1

NU-7441 = compound: O=c1cc(N2CCOCC2)oc2c(-c3cccc4c3sc3ccccc34)cccc12 [NU-7441]; settings: top dose 2 µM; top dose inferred
Description: as §1

Cell Line | AUC (QL-XI-92) | IC50 (QL-XI-92) [µM] | AUC (Vinorelbine) | IC50 (Vinorelbine) [nM] | AUC (AG-014699) | IC50 (AG-014699) [µM] | AUC (XL-184) | IC50 (XL-184) [µM] | AUC (WHI-P97) | IC50 (WHI-P97) [µM] | AUC (Gefitinib) | IC50 (Gefitinib) [nM] | AUC (Phenformin) | IC50 (Phenformin) [µM] | AUC (S-Trityl-L-cysteine) | IC50 (S-Trityl-L-cysteine) [nM] | AUC (EHT 1864) | IC50 (EHT 1864) [µM] | AUC (NU-7441) | IC50 (NU-7441) [nM]
HCC2157 (breast, suspension) | 0.912 | > 10.2 | 0.742 | 20.5 | 0.983 | > 5 | 0.984 | > 5.12 | 0.986 | > 10.2 | 0.95 | > 500 | 0.425 | 154 | 0.908 | > 5120 | 0.931 | > 10 | 0.873 | > 2000
HD-MY-Z (Hodgkin lymphoma, adherent) | 0.797 | 4.88 | 0.798 | 30.7 | 0.962 | > 5 | 0.879 | > 5.12 | 0.93 | > 10.2 | 0.958 | > 500 | 0.544 | 329 | 0.778 | 2080 | 0.972 | > 10 | 0.976 | > 2000
IA-LM (large cell lung carcinoma, adherent) | 0.956 | > 10.2 | 0.512 | 4.33 | 0.982 | > 5 | 0.973 | > 5.12 | 0.979 | > 10.2 | 0.974 | > 500 | 0.815 | 2540 | 0.725 | 1520 | 0.971 | > 10 | 0.903 | > 2000
IST-MEL1 (melanoma, adherent) | 0.945 | > 10.2 | 0.883 | > 64 | 0.967 | > 5 | 0.946 | > 5.12 | 0.977 | > 10.2 | 0.982 | > 500 | 0.49 | 234 | 0.897 | > 5120 | 0.972 | > 10 | 0.915 | > 2000
IST-SL1 (small cell lung carcinoma, semi-adherent) | 0.829 | 6.65 | 0.767 | 24.5 | 0.977 | > 5 | 0.894 | > 5.12 | 0.971 | > 10.2 | 0.976 | > 500 | 0.987 | > 4000 | 0.839 | 3650 | 0.916 | > 10 | 0.945 | > 2000
JSC-1 (B-cell lymphoma, suspension) | 0.74 | 3.09 | 0.525 | 4.68 | 0.969 | > 5 | 0.931 | > 5.12 | 0.95 | > 10.2 | 0.985 | > 500 | 0.637 | 596 | 0.589 | 561 | 0.911 | > 10 | 0.965 | > 2000
JVM-2 (lymphoid neoplasm, suspension) | 0.897 | > 10.2 | 0.977 | > 64 | 0.96 | > 5 | 0.948 | > 5.12 | 0.932 | > 10.2 | 0.842 | 475 | 0.788 | 2210 | 0.962 | > 5120 | 0.982 | > 10 | 0.912 | > 2000
JiyoyeP-2003 (Burkitt lymphoma, suspension) | 0.991 | > 10.2 | 0.688 | 12.5 | 0.989 | > 5 | 0.975 | > 5.12 | 0.978 | > 10.2 | 0.964 | > 500 | 0.573 | 386 | 0.697 | 1050 | 0.926 | > 10 | 0.984 | > 2000
K5 (thyroid, adherent) | 0.986 | > 10.2 | 0.843 | 42.7 | 0.953 | > 5 | 0.957 | > 5.12 | 0.979 | > 10.2 | 0.959 | > 500 | 0.95 | > 4000 | 0.67 | 929 | 0.922 | > 10 | 0.945 | > 2000
KARPAS-45 (lymphoblastic leukaemia, suspension) | 0.931 | > 10.2 | 0.499 | 3.98 | 0.979 | > 5 | 0.782 | 1.77 | 0.979 | > 10.2 | 0.987 | > 500 | 0.264 | 61.1 | 0.705 | 1070 | 0.942 | > 10 | 0.884 | 1540
KARPAS-620 (haematopoietic neoplasm, suspension) | 0.776 | 3.51 | 0.464 | 3.25 | 0.991 | > 5 | 0.905 | > 5.12 | 0.944 | > 10.2 | 0.991 | > 500 | 0.073 | < 15.6 | 0.51 | 339 | 0.966 | > 10 | 0.986 | > 2000
KELLY (neuroblastoma, adherent) | 0.989 | > 10.2 | 0.915 | > 64 | 0.806 | 2.27 | 0.951 | > 5.12 | 0.914 | > 10.2 | 0.989 | > 500 | 0.984 | > 4000 | 0.755 | 1600 | 0.972 | > 10 | 0.926 | > 2000
KINGS-1 (glioma, adherent) | 0.97 | > 10.2 | 0.785 | 39.3 | 0.909 | > 5 | 0.805 | 3.85 | 0.98 | > 10.2 | 0.975 | > 500 | 0.49 | 232 | 0.751 | 2280 | 0.941 | > 10 | 0.937 | > 2000
